The supplement of paper PMC3334620
Over roughly 33,000 sequences, “E-score (-0.5 to 0.5)” has its median near -0.016; the highest 2% begin near 0.32. This is one part of the list.

target: T1, Stp1 (UniProt B3LFK1); experiment: PBM E-score (8-mer binding enrichment) (E-score (-0.5 to 0.5)); higher = stronger / more preferred TF binding; most listed sequences are background and not binding sites; conditions: protein concentration: 200 nM; construct: GST-full length
T1 sequence: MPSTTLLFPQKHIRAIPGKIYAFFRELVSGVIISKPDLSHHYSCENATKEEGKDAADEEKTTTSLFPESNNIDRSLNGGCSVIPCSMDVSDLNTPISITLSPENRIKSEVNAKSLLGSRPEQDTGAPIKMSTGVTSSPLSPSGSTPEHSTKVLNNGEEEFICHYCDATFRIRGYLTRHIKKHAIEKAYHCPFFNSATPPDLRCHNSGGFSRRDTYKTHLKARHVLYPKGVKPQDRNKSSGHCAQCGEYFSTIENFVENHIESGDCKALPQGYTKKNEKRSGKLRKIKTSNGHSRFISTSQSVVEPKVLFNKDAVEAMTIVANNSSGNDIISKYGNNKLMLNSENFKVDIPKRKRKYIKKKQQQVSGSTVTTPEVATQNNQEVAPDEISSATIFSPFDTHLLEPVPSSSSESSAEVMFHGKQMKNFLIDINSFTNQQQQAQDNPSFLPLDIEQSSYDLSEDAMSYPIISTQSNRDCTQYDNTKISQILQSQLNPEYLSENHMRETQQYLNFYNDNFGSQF
Description: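 Universal 'all 10-mer' protein binding microarrays (Agilent AMADID 015681) probed with GST-tagged S. cerevisiae TFs (full-length or DBD) made by in vitro transcription/translation (PURExpress), about 100-200 nM. Bound TF was detected with fluorescent anti-GST. Each ungapped 8-mer (which stands for itself and its reverse complement) is scored by the PBM enrichment score (E-score), a modified Wilcoxon-Mann-Whitney statistic from -0.5 to +0.5, computed with the Universal PBM Analysis Suite. Scale: above 0.35 generally sequence-specific binding.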

Sequence | PBM E-score
CTTTAGAA | 0.163
ACGTAGGA | -0.0769
GACTAGCA | -0.106
AATCGAAT | 0.236
GCCCAGGA | -0.134
TAACTATA | -0.0179
GCGGCAGC | 0.334
AGAAGGCA | 0.162
CCGAGCAC | -0.158
CCATCGCG | 0.173
GCATTTAA | 0.235
GAAGTCCA | -0.179
ACGAAATG | -0.0265
AGCAGAGA | -0.0687
GGCGAAAA | 0.207
AGCGCCGC | 0.481
GTCGTCGA | -0.059
CACCCGAA | -0.0461
AATGCCGA | 0.303
CCTAACAC | 0.067
CGGCTTAG | 0.0549
ACTCCCTA | -0.244
ATTAGTCG | 0.151
CACATCAG | -0.131
GGGTAGTA | -0.169

Sequence | PBM E-score
AGTACGCC | 0.0806
ACGGTCTC | -0.041
TAGCGCAA | -0.0177
GCGTATTA | -0.0425
GTAGCGCA | -0.0641
CCGGCTAA | -0.056
AACGCACT | -0.0239
CTGGGACA | -0.133
AATTTGTG | 0.149
AAGGACAA | 0.118
GGCAAGCC | 0.00627
AAACTTCT | 0.0968
AACATAAA | 0.0488
GGGGACGA | -0.249
AGATTTAT | 0.218
AATTACAA | -0.00331
CCATACGG | 0.395
TTAGGCAA | -0.0119
ACAACACG | 0.147
CCGAGTGA | -0.0864
GACTCGCC | -0.0418
GATACTCA | -0.125
GATCTAAA | 0.0401
GGGAGCGA | -0.21
ATCACTCA | 0.104

Sequence | PBM E-score
ACTAGAGG | -0.17
AGACACGA | -0.124
TGACTGAA | -0.114
AACTAGAG | -0.0509
ATCTACCG | -0.0632
ACGGCTTA | 0.375
CGCACACC | 0.0466
CATCTGGG | -0.155
GCTTAGCC | -0.0807
ACAATCTA | -0.0175
GGGATGCA | -0.182
GCTTTTCC | -0.0701
CAACCTTC | -0.146
AGTAAGCA | 0.0206
GAGCATCA | 0.0573
TCTGATCA | -0.039
GAGGGCTA | -0.267
TCTCGCAA | -0.0228
AGCTCCTA | -0.218
CTATGCGC | 0.143
AATGGTAC | -0.0272
AAAAATAG | 0.146
GGTGCTGA | -0.195
AGCCGTCC | 0.308
ACATCCAC | -0.0198

Sequence | PBM E-score
AAAGTACA | 0.0729
GAGTGTTA | -0.0319
ACTTTGAT | 0.148
GGCATCCC | -0.0465
GGCTCAGA | 0.114
CGACGCGA | -0.126
AGGATGAT | -0.0991
ACCGGATG | -0.112
GGCACTAA | 0.392
CCGGGTCG | -0.302
CGGCAAGA | 0.236
ACGGTGCT | -0.0146
AGCCCCCT | -0.307
GTCGTAGA | -0.0493
CTTGTAGC | 0.054
ACGCGGAC | 0.0606
GCTGGTAC | -0.0636
CCACGCCA | 0.0283
CGGCGCGA | 0.477
ACCCGATA | -0.245
AGCCCACT | -0.203
CATCCAGA | -0.174
ACTAGCAA | -0.0401
CCACACAA | -0.00214
CGTGGTGA | -0.0722

Sequence | PBM E-score
ATCTTGCG | 0.153
ATCACTGG | 0.0741
CACGTTTC | -0.259
ATGCTCAA | -0.119
CTCTGCTA | -0.0669
CCGTGAGA | 0.00516
GGATGTCA | -0.045
ACGCAGTA | 0.0148
CATCATAG | -0.0514
ATAGCGGG | -0.0712
CCTACCAC | -0.128
CAGTCGCG | -0.187
GGACACAA | 0.122
GCATCTAA | 0.221
TCTAGCAA | 0.115
CGTCCTTC | -0.161
AGAAAGGC | 0.206
CGTATAGA | 0.152
CACGGAAC | 0.253
ACTTAGTC | -0.208
ATTCCGAA | 0.129
CCCTATCG | -0.196
ATGGGAAC | -0.132
AGCTTGTA | 0.0115
ACTTAGAC | 0.111

Sequence | PBM E-score
GCCCTACA | 0.0881
ATAAAGAT | 0.0858
GGAGAGAC | -0.259
TATAGTGA | 0.0183
CGCCCACC | 0.00958
TCGTAGCA | 0.119
GTGTTAAC | 0.094
ACTGTAAG | 0.144
ACTTAAAT | 0.0505
GACTACTA | -0.0239
GAGACATC | -0.133
CAAGCGTC | -0.0885
AGGCGGGA | -0.183
ATGGCTAC | -0.0246
CATGCGGG | 0.0548
CGCAATCA | 0.0332
CAGGTACG | -0.0382
AAGAAAAT | 0.164
CTATAAGC | -0.0357
CAGTGAAC | -0.0426
GAGACGCA | -0.0219
GTCCAATA | -0.155
GAAGGGCC | -0.0951
GCGCGGAA | 0.263
CAGGTGTA | -0.142

Sequence | PBM E-score
GCTGCGTA | -0.0797
ACACCGGA | -0.154
GCCTGCGC | 0.0437
GACGTAAA | 0.0685
GATAAGAC | -0.00155
ACTTTCAA | 0.0067
GTAACCAA | -0.00612
TATCGTCA | -0.0796
CGAAAATC | 0.159
AGCTACAT | -0.0335
ACGCGGCT | 0.446
ACTTCGTG | 0.00238
CCATTCTA | 0.113
AGTACCTG | -0.212
AGCCGACG | -0.0599
TCAAGCAA | 0.0229
CCGCGTGA | 0.313
CTTCGGGA | -0.0682
CCACTCCA | -0.0331
CATTGCCA | -0.0509
CGAGATCA | 0.0764
AGACCTCG | -0.157
